{"source": "paper PMC11995724", "about": "“Antibiotic target discovery by integrated phenotypic and activity-based profiling of electrophilic fragments” (Cell chemical biology, 2025)", "note": "The campaign covered roughly 3,200 compounds. About 110 (3.4%) showed an effect of 50% or more. Some of the results follow."}
{"tested_on": "T1, V. cholerae SAD30", "T1 construct": "SAD30", "set-up": "species or system S. aureus MSSA476 (TSB) or V. cholerae SAD30 (LB); 384-well bacterial growth screen at 25 uM, OD600 relative to DMSO control", "settings": "relative growth, OD600, LB; 25 µM; inhibitor", "units": {"% of control remaining": "%"}}
{"smiles": "CC(Cl)C(=O)Nc1cc(Cl)ccc1Cl", "note": "(stereo not drawn) [6-A15, 2-chloro-N-(2,5-dichlorophenyl)propanamide]", "% of control remaining": 87.5154}
{"smiles": "CC(Cl)C(=O)N1CCN(c2nc3ccccc3o2)C(C)C1", "note": "(stereo not drawn) [7-K22, 1-[4-(1,3-benzoxazol-2-yl)-3-methylpiperazin-1-yl]-2-chloropropan-1-one]", "% of control remaining": 84.7183}
{"smiles": "O=C(CCl)NC1COc2ncccc21", "note": "(stereo not drawn) [7-F10, 2-chloro-N-{2H,3H-furo[2,3-b]pyridin-3-yl}acetamide]", "% of control remaining": 83.7932}
{"smiles": "CC(Cl)C(=O)N1CCN(Cc2nnnn2-c2ccccc2)CC1", "note": "(stereo not drawn) [7-N05, 2-chloro-1-{4-[(1-phenyl-1H-1,2,3,4-tetrazol-5-yl)methyl]piperazin-1-yl}propan-1-one]", "% of control remaining": 83.5288}
{"smiles": "CCOc1ccc(S(=O)(=O)N2CCN(C(=O)CCl)CC2)cc1", "note": "[4-P15, 2-chloro-1-[4-(4-ethoxybenzenesulfonyl)piperazin-1-yl]ethan-1-one]", "% of control remaining": 118.352}
{"smiles": "CC(Cl)C(=O)N1CCCN(c2ccc(-c3ccccc3)nn2)CC1", "note": "(stereo not drawn) [7-L15, 2-chloro-1-[4-(6-phenylpyridazin-3-yl)-1,4-diazepan-1-yl]propan-1-one]", "% of control remaining": 80.3568}
{"smiles": "C=CC(=O)Nc1ccccc1-c1nnnn1C", "note": "[1-M05, N-[2-(1-methyl-1H-1,2,3,4-tetrazol-5-yl)phenyl]prop-2-enamide]", "% of control remaining": 92.8251}
{"smiles": "O=C(CCl)Cc1ccc(F)cc1Cl", "note": "[10-E19, 1-chloro-3-(2-chloro-4-fluorophenyl)propan-2-one]", "% of control remaining": 21.0403}
{"smiles": "N#CC(=Cc1c(C2CC2)nc2sccn12)C(=O)NC1CCCCC1", "note": "[9-H18, 2-cyano-N-cyclohexyl-3-{6-cyclopropylimidazo[2,1-b][1,3]thiazol-5-yl}prop-2-enamide]", "% of control remaining": 64.7859}
{"smiles": "CC(Cl)C(=O)N(C)Cc1ccccc1", "note": "(stereo not drawn) [6-I13, N-benzyl-2-chloro-N-methylpropanamide]", "% of control remaining": 78.87}
{"smiles": "C=CC(=O)NC(Cn1cnc2ccccc21)c1ccc(F)cc1", "note": "(stereo not drawn) [2-C11, N-[2-(1H-1,3-benzodiazol-1-yl)-1-(4-fluorophenyl)ethyl]prop-2-enamide]", "% of control remaining": 87.108}
{"smiles": "CC(Cl)C(=O)NC1COCc2ccccc21", "note": "(stereo not drawn) [6-B05, 2-chloro-N-(3,4-dihydro-1H-2-benzopyran-4-yl)propanamide]", "% of control remaining": 97.9809}
{"smiles": "CC(Cl)C(=O)N(CCC#N)c1ccccc1", "note": "(stereo not drawn) [6-M18, 2-chloro-N-(2-cyanoethyl)-N-phenylpropanamide]", "% of control remaining": 87.9704}
{"smiles": "C=CC(=O)N1CCC(C(=O)NCC2COC3(CCCC3)O2)CC1", "note": "(stereo not drawn) [3-A16, N-({1,4-dioxaspiro[4.4]nonan-2-yl}methyl)-1-(prop-2-enoyl)piperidine-4-carboxamide]", "% of control remaining": 114.144}
{"smiles": "COc1cc(OC)c(C(=O)CCl)c(OC)c1", "note": "[10-L04, 2-chloro-1-(2,4,6-trimethoxyphenyl)ethan-1-one]", "% of control remaining": 98.344}
{"smiles": "C=CC(=O)N1CCC(C(=O)N2Cc3ccccc3C[C@H]2C(N)=O)CC1", "note": "[3-C19, (3S)-2-[1-(prop-2-enoyl)piperidine-4-carbonyl]-1,2,3,4-tetrahydroisoquinoline-3-carboxamide]", "% of control remaining": 110.263}
{"smiles": "C=CC(=O)NCCC(=O)N1CCc2ncncc2C1", "note": "[2-C04, N-(3-oxo-3-{5H,6H,7H,8H-pyrido[4,3-d]pyrimidin-6-yl}propyl)prop-2-enamide]", "% of control remaining": 109.804}
{"smiles": "CC1CC(c2ccccc2F)N(C(=O)C(C)Cl)C1", "note": "(stereo not drawn) [6-H18, 2-chloro-1-[2-(2-fluorophenyl)-4-methylpyrrolidin-1-yl]propan-1-one]", "% of control remaining": 81.6002}
{"smiles": "C=CC(=O)NCc1noc2c1CCCC2", "note": "[3-B20, N-[(4,5,6,7-tetrahydro-1,2-benzoxazol-3-yl)methyl]prop-2-enamide]", "% of control remaining": 112.38}
{"smiles": "C=CC(=O)N1CCC(C(=O)N2CCn3ccnc32)CC1", "note": "[2-I04, 1-(4-{1H,2H,3H-[1,3]diazolo[1,2-a]imidazole-1-carbonyl}piperidin-1-yl)prop-2-en-1-one]", "% of control remaining": 97.6069}
{"smiles": "C=CC(=O)Nc1ccc(F)c(C(=O)CC)c1", "note": "[1-I22, N-(4-fluoro-3-propanoylphenyl)prop-2-enamide]", "% of control remaining": 101.495}
{"smiles": "CC(NC(=O)CCl)C(c1ccccc1Cl)n1cccn1", "note": "(stereo not drawn) [7-D20, 2-chloro-N-[1-(2-chlorophenyl)-1-(1H-pyrazol-1-yl)propan-2-yl]acetamide]", "% of control remaining": 71.5017}
{"smiles": "CSc1ccccc1CC(C)NC(=O)CCl", "note": "(stereo not drawn) [7-D14, 2-chloro-N-{1-[2-(methylsulfanyl)phenyl]propan-2-yl}acetamide]", "% of control remaining": 77.1849}
{"smiles": "CS(=O)(=O)NCCc1ccc(C(=O)CCl)cc1", "note": "[10-D06, N-{2-[4-(2-chloroacetyl)phenyl]ethyl}methanesulfonamide]", "% of control remaining": 99.5909}
{"smiles": "Cc1ccc(NC(=O)C(C)Cl)cc1S(=O)(=O)N1CCOCC1", "note": "(stereo not drawn) [5-D22, 2-chloro-N-[4-methyl-3-(morpholine-4-sulfonyl)phenyl]propanamide]", "% of control remaining": 107.429}
{"smiles": "Cc1csc(-n2c(C)cc(C(=O)CCl)c2C)n1", "note": "[10-G05, 2-chloro-1-[2,5-dimethyl-1-(4-methyl-1,3-thiazol-2-yl)-1H-pyrrol-3-yl]ethan-1-one]", "% of control remaining": 103.955}
{"smiles": "Cc1ccccc1N1C(=O)CSC1=C(C#N)C(=O)N1CCCCC1", "note": "[8-B12, 2-[3-(2-methylphenyl)-4-oxo-1,3-thiazolidin-2-ylidene]-3-oxo-3-(piperidin-1-yl)propanenitrile]", "% of control remaining": 78.1101}
{"smiles": "CCN(Cc1ccc(OC)c(F)c1)C(=O)CCl", "note": "[5-D09, 2-chloro-N-ethyl-N-[(3-fluoro-4-methoxyphenyl)methyl]acetamide]", "% of control remaining": 96.501}
{"smiles": "C=CC(=O)N1CCc2c(nnn2CCOC)C1", "note": "[1-N05, 1-[1-(2-methoxyethyl)-1H,4H,5H,6H,7H-[1,2,3]triazolo[4,5-c]pyridin-5-yl]prop-2-en-1-one]", "% of control remaining": 93.5725}
{"smiles": "Cc1n[nH]c(C)c1C=C(C#N)C(=O)Nc1ccc(SC(F)F)cc1", "note": "[8-E08, 2-cyano-N-{4-[(difluoromethyl)sulfanyl]phenyl}-3-(3,5-dimethyl-1H-pyrazol-4-yl)prop-2-enamide]", "% of control remaining": 75.2549}
{"smiles": "Cc1nn(Cc2ccccc2)c(C)c1CNC(=O)CCl", "note": "[4-O11, N-[(1-benzyl-3,5-dimethyl-1H-pyrazol-4-yl)methyl]-2-chloroacetamide]", "% of control remaining": 102.998}
{"smiles": "CC(Cl)C(=O)N[C@H]1CN(Cc2ccccc2)C[C@@H]1c1ccccc1", "note": "(mixture of isomers) [7-N09, rac-N-[(3R,4S)-1-benzyl-4-phenylpyrrolidin-3-yl]-2-chloropropanamide]", "% of control remaining": 58.6816}
{"smiles": "Cc1nc2ccccc2n(CCCNC(=O)C(C)Cl)c1=O", "note": "(stereo not drawn) [7-O21, 2-chloro-N-[3-(3-methyl-2-oxo-1,2-dihydroquinoxalin-1-yl)propyl]propanamide]", "% of control remaining": 83.7932}
{"smiles": "CC(Cl)C(=O)NCCCN1CCc2ccccc2C1", "note": "(stereo not drawn) [7-M11, 2-chloro-N-[3-(1,2,3,4-tetrahydroisoquinolin-2-yl)propyl]propanamide]", "% of control remaining": 76.9205}
{"smiles": "N#CC(=Cc1ccc(O)cc1)C(=O)Nc1cc(Cl)ccc1Cl", "note": "[9-F03, 2-cyano-N-(2,5-dichlorophenyl)-3-(4-hydroxyphenyl)prop-2-enamide]", "% of control remaining": 117.947}
{"smiles": "CC(=O)c1cccc(NC(=O)C(C)Cl)c1", "note": "(stereo not drawn) [6-K22, N-(3-acetylphenyl)-2-chloropropanamide]", "% of control remaining": 100.863}
{"smiles": "CC(NC(=O)CCl)c1nnc(-c2ccccc2F)s1", "note": "(stereo not drawn) [7-L21, 2-chloro-N-{1-[5-(2-fluorophenyl)-1,3,4-thiadiazol-2-yl]ethyl}acetamide]", "% of control remaining": 86.7008}
{"smiles": "Nc1c(C(=O)CCl)c(=O)[nH]c(=O)n1Cc1ccccc1", "note": "[10-J18, 6-amino-1-benzyl-5-(2-chloroacetyl)-1,2,3,4-tetrahydropyrimidine-2,4-dione]", "% of control remaining": 97.2531}
{"smiles": "CCOC(=O)c1c(C)[nH]c(C)c1C(=O)CCl", "note": "[10-C10, ethyl 4-(2-chloroacetyl)-2,5-dimethyl-1H-pyrrole-3-carboxylate]", "% of control remaining": 97.8765}
{"smiles": "O=C(CCl)NCC1(c2ccccc2)CCOCC1", "note": "[6-I07, 2-chloro-N-[(4-phenyloxan-4-yl)methyl]acetamide]", "% of control remaining": 91.7623}
{"smiles": "C=CC(=O)Nc1nn(C2CCCC2)c(C)c1Cl", "note": "[1-O06, N-(4-chloro-1-cyclopentyl-5-methyl-1H-pyrazol-3-yl)prop-2-enamide]", "% of control remaining": 86.6966}
{"smiles": "C=CC(=O)NCCc1c(C)oc2ccccc12", "note": "[1-N07, N-[2-(2-methyl-1-benzofuran-3-yl)ethyl]prop-2-enamide]", "% of control remaining": 82.6607}
{"smiles": "CC(Cl)C(=O)NC(C)c1nc(Cc2ccccc2)no1", "note": "(stereo not drawn) [7-B19, N-[1-(3-benzyl-1,2,4-oxadiazol-5-yl)ethyl]-2-chloropropanamide]", "% of control remaining": 82.868}
{"smiles": "C=CC(=O)N(Cc1ccc(OC)cc1)[C@@H]1CCCC[C@H]1O", "note": "[2-M05, N-[(1R,2R)-2-hydroxycyclohexyl]-N-[(4-methoxyphenyl)methyl]prop-2-enamide]", "% of control remaining": 86.0272}
{"smiles": "CC(Cl)C(=O)NCc1noc2ccccc12", "note": "(stereo not drawn) [7-I14, N-[(1,2-benzoxazol-3-yl)methyl]-2-chloropropanamide]", "% of control remaining": 66.2151}
